# Source: PubChem BioAssay (NCATS)
# The other results are listed elsewhere or left out. These are further read-outs of the screen, such as a control signal, another cell line or another target. No call is given for them. Most of these compounds were active or inconclusive in the main read-out, so they are no random draw. Words in brackets tell the shape of the fitted curve; partial curves, single points and poor fits give uncertain potencies.
# Experiment: Cell-based coincidence reporter assay to measure PMP22 gene transcription in S16 Pmp22-F2sN cells - Confirmatory screen (AID 1508646)
# Settings: S16 Schwann cells Pmp22-F2sN, dual luciferase, 24 h
# Procedure, shortened: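 S16 rat Schwann cells carrying FLuc-2A-NLuc reporter in Pmp22 3' UTR (500-1,000 cells/well) treated with pinned compounds for 24 h at 37C. Dual-luciferase reads: FLuc luminescence first, then NLuc after Stop&Glo.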
# [1] = measured here: FLuc reporter channel
# [2] = measured here: NLuc reporter channel
# Tags give direction and shape of the fitted curve.
structure (smiles),measurement,setting,value
CCN(CC)S(=O)(=O)c1ccc2c(c1)N(CC(=O)NCCCN1CCN(c3cc(Cl)ccc3C)CC1)C(=O)CO2,AC50,[1],"34.3 µM [falling, partial curve]"
same,AC50,[2],"43.2 µM [falling, partial curve]"
Cc1cc(NC(=O)C2CCCN(S(=O)(=O)c3cccc4nonc34)C2)ccc1Br (configuration not stated),AC50,[1],"17.2 µM [falling, partial curve]"
same,AC50,[2],"17.2 µM [falling, partial curve]"
O=C(NCCCN1CCN(c2ccc(F)cc2)CC1)c1ccc2nc(Cc3ccccc3)oc2c1,AC50,[1],"21.7 µM [falling, partial curve]"
same,AC50,[2],"24.3 µM [falling, partial curve, poor fit]"
Cn1nnnc1SCCCNCc1ccccc1OCc1ccccc1Cl,AC50,[1],"24.3 µM [falling, partial curve]"
same,AC50,[2],"24.3 µM [falling, partial curve]"
COc1cc(-c2noc(-c3ccc(NCc4ccco4)c([N+](=O)[O-])c3)n2)cc(OC)c1OC,AC50,[1],"10.9 µM [falling, full curve, poor fit]"
same,AC50,[2],"15.3 µM [falling, full curve, poor fit]"
Cc1ccc(C)n1-c1nnc(N2CCC(C(=O)NCc3ccccc3Cl)CC2)s1,AC50,[1],"43.2 µM [falling, single point]"
same,AC50,[2],"38.5 µM [falling, partial curve, poor fit]"
CCC(C)NC(=O)C1CCN(C(=O)c2cc3sccc3n2Cc2ccc(Cl)cc2)CC1 (configuration not stated),AC50,[1],"15.3 µM [falling, partial curve]"
same,AC50,[2],"12.2 µM [falling, partial curve]"
CCS(=O)(=O)c1ncc(Cl)c(C(=O)Nc2c(C(=O)c3ccc(C)cc3)oc3ccccc23)n1,AC50,[1],"7.69 µM [falling, full curve]"
same,AC50,[2],"10.9 µM [falling, full curve]"
CCOCCCn1c(=N)c(C(=O)NC2CCCC2)cc2c(=O)n3cccc(C)c3nc21,AC50,[1],"8.62 µM [falling, partial curve]"
same,AC50,[2],"17.2 µM [falling, partial curve]"
CCOc1ccc(Nc2nc3c(S(=O)(=O)c4ccc(CC)cc4)nnn3c3ccc(Cl)cc23)cc1,AC50,[1],"13.7 µM [falling, partial curve, poor fit]"
same,AC50,[2],"21.7 µM [falling, partial curve]"
COc1cccc(-n2c(SCC(=O)c3ccc(Cl)cc3)nc3c([nH]c4ccccc43)c2=O)c1,AC50,[1],"10.9 µM [falling, partial curve]"
same,AC50,[2],"10.9 µM [falling, partial curve]"
CCCCOc1ccc(C(C)NC(=O)c2cccc(Nc3nc4ccccc4n4nnnc34)c2)cc1 (configuration not stated),AC50,[1],"9.68 µM [falling, full curve]"
same,AC50,[2],"10.9 µM [falling, full curve]"
COc1cccc(NC(=O)N(Cc2cn(C)c3ccccc23)C2CCCCCC2)c1,AC50,[1],"34.3 µM [falling, single point]"
same,AC50,[2],"27.3 µM [falling, partial curve]"
COc1ccccc1-c1nc2c(c(SCC(=O)Nc3ccc(C)c(C)c3)n1)Cc1c(CO)cnc(C)c1O2,AC50,[1],"24.3 µM [falling, partial curve]"
same,AC50,[2],"30.6 µM [falling, single point]"
CCc1ccc(NCc2cc3cc(OC)c(OC)cc3n(CC(=O)Nc3cc(C)ccc3C)c2=O)cc1,AC50,[1],"34.3 µM [falling, single point]"
same,AC50,[2],"34.3 µM [falling, single point]"
CCS(=O)(=O)c1ncc(Cl)c(C(=O)NCc2ccccc2)n1,AC50,[1],"6.11 µM [falling, full curve]"
same,AC50,[2],"7.69 µM [falling, full curve]"
COc1ccccc1CNC(=O)CSc1nnc(C)c2c(C)n(-c3ccccc3)nc12,AC50,[1],"10.9 µM [falling, partial curve]"
same,AC50,[2],"17.2 µM [falling, partial curve, poor fit]"
Cc1c2cnn(CC(=O)NCc3ccccc3)c(=O)c2c(C)n1Cc1cccc(Cl)c1,AC50,[1],"17.2 µM [falling, partial curve]"
same,AC50,[2],"24.3 µM [falling, partial curve, poor fit]"
CCCn1c(=N)c(C(=O)NC(C)c2ccccc2)cc2c(=O)n3ccccc3nc21 (configuration not stated),AC50,[1],"5.44 µM [falling, partial curve]"
same,AC50,[2],"3.85 µM [falling, full curve]"
CCCC1=Nc2cc(C(=O)NC3CCCCC3)ccc2Sc2ccc(C)cc21,AC50,[1],"1.93 µM [falling, full curve]"
same,AC50,[2],"3.85 µM [falling, full curve]"
O=C(CSc1nc2cc(C(=O)NC3CCCC3)ccc2c(=O)n1CC1CCCO1)c1cccc(Cl)c1 (configuration not stated),AC50,[1],"24.3 µM [falling, partial curve]"
same,AC50,[2],"24.3 µM [falling, partial curve]"
CCN(CC)CCCNC(=O)CSc1c2c(nc3cc(Cl)ccc13)CCCC2,AC50,[1],"8.62 µM [falling, full curve]"
same,AC50,[2],"12.2 µM [falling, partial curve]"
CC(C)c1ccc(NC(=O)N2CCN(c3ccc(Cl)c(Cl)c3)CC2)cc1,AC50,[1],"27.3 µM [falling, partial curve, poor fit]"
same,AC50,[2],"24.3 µM [falling, partial curve]"
COc1ccc(CCNC(=O)c2cc(=O)c3c(C)cc(C)cc3o2)cc1OC,AC50,[1],"15.3 µM [falling, partial curve, poor fit]"
same,AC50,[2],"6.85 µM [falling, full curve]"
COc1cc2c(cc1OC)C(COc1ccc3c(C)cc(=O)oc3c1)N(C(=O)c1ccc(C)cc1)CC2 (configuration not stated),AC50,[1],"24.3 µM [falling, partial curve]"
same,AC50,[2],"27.3 µM [falling, partial curve, poor fit]"
Cc1ccc(NC(=O)N(Cc2cn(C)c3ccccc23)C2CCCCC2)cc1C,AC50,[1],"17.2 µM [falling, partial curve, poor fit]"
same,AC50,[2],"15.3 µM [falling, partial curve]"
Cc1cccc(C)c1Nc1sc(C(=O)c2ccccc2)c(N)c1S(=O)(=O)c1ccccc1,AC50,[1],"0.432 µM [falling, full curve, poor fit]"
same,AC50,[2],"6.11 µM [falling, partial curve, poor fit]"
CCCNC(=O)c1ccc2c(c1)N=C(CCC)c1ccccc1S2,AC50,[1],"4.32 µM [falling, full curve]"
same,AC50,[2],"3.85 µM [falling, full curve]"
Cc1cc(C)c(NC(=O)Cn2c(=O)oc3cc(S(=O)(=O)N4CCCCCC4)ccc32)c(C)c1,AC50,[1],"30.6 µM [falling, partial curve, poor fit]"
same,AC50,[2],"30.6 µM [falling, partial curve, poor fit]"
CN(C)CCNC(=O)c1ccc(-n2c(-c3ccccc3)cc3c2CCCC3)cc1,AC50,[1],"19.3 µM [falling, partial curve]"
same,AC50,[2],"21.7 µM [falling, partial curve]"
O=c1oc2ccccc2cc1-c1cn2cc(Cc3ccc(Br)cc3)sc2n1,AC50,[1],"21.7 µM [falling, partial curve, poor fit]"
same,AC50,[2],"21.7 µM [falling, partial curve, poor fit]"
COc1ccc(-n2nc3c(N4CCCC(C(=O)NCc5ccccc5C)C4)nnc(C)c3c2C)cc1 (configuration not stated),AC50,[1],"17.2 µM [falling, partial curve]"
same,AC50,[2],"21.7 µM [falling, partial curve]"
O=C(COc1ccc(F)cc1)Nc1ccc2nc(SCC(=O)N3CCc4ccccc43)sc2c1,AC50,[1],"4.32 µM [falling, full curve, poor fit]"
same,AC50,[2],"3.85 µM [falling, full curve, poor fit]"
CCOc1ccccc1Nc1sc(C(=O)c2ccccc2)c(N)c1S(=O)(=O)c1ccc(C)cc1,AC50,[1],"10.9 µM [falling, full curve, poor fit]"
same,AC50,[2],"12.2 µM [falling, full curve, poor fit]"
COc1ccc(Nc2c3c(nc4ccc(NC(=O)c5cc(Cl)ccc5OC)cc24)CCCC3)cc1OC,AC50,[1],"9.68 µM [falling, full curve]"
same,AC50,[2],"9.68 µM [falling, full curve]"
Cc1ccc(CNC(=O)c2ccc(Cn3c(=O)c4ccccc4n(CC(=O)Nc4ccc(C)cc4C)c3=O)cc2)cc1,AC50,[1],"15.3 µM [falling, full curve]"
same,AC50,[2],"21.7 µM [falling, partial curve]"
COc1ccc(Cl)cc1NC(=O)Cn1c(=O)n(-c2ccc(C)cc2)c(=O)c2ccc(C(=O)NCc3ccccc3Cl)cc21,AC50,[1],"6.85 µM [falling, full curve]"
same,AC50,[2],"15.3 µM [falling, partial curve]"
Cc1ccc(C(=O)c2oc3ccccc3c2NC(=O)c2nc(S(C)(=O)=O)ncc2Cl)cc1F,AC50,[1],"10.9 µM [falling, full curve]"
same,AC50,[2],"15.3 µM [falling, partial curve]"
Cc1cccc(N2CCN(S(=O)(=O)c3ccc4c(c3)CCCN4C(=O)C3CCC3)CC2)c1C,AC50,[1],"21.7 µM [falling, partial curve]"
same,AC50,[2],"13.7 µM [falling, partial curve, poor fit]"
COCCCNC(=O)c1ccc(-n2c(-c3ccccc3)cc3c2CCC(C)C3)cc1 (configuration not stated),AC50,[1],"4.85 µM [falling, full curve]"
same,AC50,[2],"0.544 µM [falling, full curve]"
COC(=O)c1c(-c2ccc(Cl)cc2)noc1N1CCN(c2ccccc2OC)CC1,AC50,[1],"19.3 µM [falling, partial curve]"
same,AC50,[2],"19.3 µM [falling, partial curve]"
